Assay results from PubChem BioAssay AID652104 (National Center for Advancing Translational Sciences (NCATS), 2013).
Among all 410,000 compounds or so, about 7,200 (1.8%) were called active. Inconclusive results, whose numbers are uncertain, are shown with a selection of clear calls. Calls follow the shape of the dose curve; as a rule, active = well fitted activation curve with a large enough effect; inconclusive = small, poorly fitted or top-dose-only effect, or another doubt; inactive = no such curve, though single readings can be large or run the other way. Potencies of inconclusive entries are left out as doubtful fits.
Potency is read from the fitted curve at half-maximal effect; tags tell the direction and shape of the fitted curve.

Test: qHTS of TDP-43 Inhibitors; also: nearly all actives have a fitted effect of over 50% in size; as to growth rescue (activation): % of control where 0% means no effect
Conditions: TDP-43 expressing yeast growth rescue, BacTiter-Glo, 24 h; growth rescue (activation): at 46.1 µM (top of the series) unless noted
Procedure, shortened: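 Luminescence from BacTiter-Glo reports growth of TDP-43-expressing yeast after 24 hr at 30 deg C with compound. Cells were raffinose-pregrown to mid-log, then seeded in galactose medium at OD600=0.02.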
For `Cc1ccc(C2CC(c3ccc(Cl)cc3)=NNC2=O)cc1` (configuration not stated), the Potency was active: 22.4 µM. With `CNC(=O)c1csc(-c2ccc(Cl)cc2)n1` the Potency was inconclusive [activator, single point]. For `COc1ccc(C#CC2=CC(=O)CC(C)(C)C2)cc1`, the Potency was inconclusive [activator, single point]. In the case of `CC(C)c1nnc(NC(=O)CCC(=O)N2CCN(Cc3ccccc3)CC2)s1`, the Potency is reported as “inactive”. For `CC(C)c1ccc(CNc2ncccn2)cc1`, the Potency was “inactive”. With `N#Cc1ccc(OCc2cccc(S(=O)(=O)N3CCOCC3)c2)cc1` the Potency was inconclusive [activator, single point]. With `Cc1noc2ncnc(SCc3ccc(C(F)(F)F)cc3)c12` the Potency was inconclusive [activator, partial curve]. For `COn1c(-c2ccc(Cl)cc2)nc2ccc(Cl)cc21`, the Potency was inconclusive [activator, single point]. With `COC(=O)c1ccc(COc2ccc(C#N)cc2)o1` the Potency was inconclusive [activator, single point]. For `Cc1ccc2[nH]cc(C(=O)CCl)c2c1`, the Potency was inconclusive [activator, single point]. In the case of `CS(=O)(=O)N1CCN(C2Cc3ccccc3C2)CC1`, the Potency is reported as “inactive”. In the case of `COc1ccc(NC(=O)COC(=O)Cc2c(F)cccc2Cl)cc1`, the Potency is reported as inconclusive [activator, single point]. For `Cc1cn([C@H]2C[C@H](O)[C@@H](CNC(=O)[C@H](N)Cc3cscn3)O2)c(=O)[nH]c1=O`, the Potency was inconclusive [activator, full curve]. For `CN(C)CCC(=O)c1ccc2c(c1)OCO2`, the Potency was inconclusive [activator, partial curve]. With `COc1ccccc1NC(=O)c1oc2ccccc2c1NC(=O)c1ccccc1C(F)(F)F` the Potency was “inactive”. With `CC(C)NC(=S)NNc1ncnc2sc3c(c12)CC(C)(C)OC3` the Potency was inconclusive [activator, partial curve]. For `Cc1cccc(NC(=O)Cc2ccc(-c3ccccc3)cc2)n1`, the Potency was active: 11.2 µM. For `O=C(c1cc2c(s1)-c1ccccc1OC2)N1CCCC1`, the Potency was inconclusive [activator, single point]. For `Fc1ccc(CSc2nnc(-c3ccccn3)o2)cc1`, the Potency was active: 12.6 µM. In the case of `CC(=O)Nc1ccc(S(=O)(=O)N2CCC(N3CCCCCC3)CC2)cc1`, the Potency is reported as “inactive”. For `COc1ccccc1-c1cn[nH]c1-c1ccc(OCc2ccccc2)cc1O`, the Potency was inconclusive [activator, single point]. In the case of `CCn1c(=O)c(CCC(=O)N2CCN(c3ccccn3)CC2)c(C)c2c(C)nn(-c3ccccc3)c21`, the Potency is reported as inconclusive [activator, single point]. In the case of `COc1ccc(Cl)c2sc(NC(=O)C3=COCCO3)nc12`, the Potency is reported as “inactive”. With `Cc1cc2nc(-c3ccc(OCc4ccc(F)cc4)cc3)cc(C(F)(F)F)n2n1` the Potency was “inactive”. With `CC(C)(C)c1csc(NC(=O)c2cccnc2)n1` the Potency was “inactive”. For `CCCCOc1ccc(C(=O)NCCc2sc(-c3cccc(F)c3)nc2C)cc1`, the Potency was inconclusive [activator, single point]. In the case of `Cc1ccc(CONC(=O)c2cccc([N+](=O)[O-])c2)cc1`, the Potency is reported as inconclusive [activator, partial curve, poor fit]. With `CCc1cccc(NC(=O)c2cnc(SC)nc2-c2ccccc2)c1` the growth rescue (activation) was inconclusive: 286% [activator]. With `O=c1c2ccccc2nc(/C=C/c2ccc(Cl)cc2)n1CCO` the Potency was active: 11.2 µM. With `CCOC(=O)c1sc(Nc2ccccc2)nc1C` the Potency was inconclusive [activator, partial curve]. For `CCC1(CC)C(=O)C2=C3C1[C@H](C(=O)OC)CC(C(=O)OC)C[C@H]3n1c(=O)n(C)c(=O)n1[C@H]2C` (some centres not stated), the Potency was inconclusive [activator, partial curve, poor fit]. With `Cc1ccc(/C(N)=N/OC(=O)c2cc(-c3ccccc3)nc3ccccc23)cc1` the Potency was inconclusive [activator, single point]. In the case of `Cc1cc(C)c2nc(NC(=O)C3CCCO3)sc2c1` (configuration not stated), the Potency is reported as inconclusive [activator, partial curve]. For `CNC(=O)c1ccsc1NC(=O)c1ccc(Cl)s1`, the Potency was inconclusive [activator, partial curve]. In the case of `O=c1cc(-c2ccccc2)n(S(=O)(=O)c2ccccc2)o1`, the Potency is reported as inconclusive [activator, single point]. In the case of `Nc1ccc(C=C2C=Cc3ccccc32)cc1`, the Potency is reported as inconclusive [activator, single point]. In the case of `O=C(c1c(F)c(F)c(F)c(F)c1F)N1CCN(c2cccc(C(F)(F)F)c2)CC1`, the Potency is reported as active: 15.8 µM. In the case of `O=C(C1CCN(S(=O)(=O)Cc2ccccc2)CC1)N1CCN(c2ccc(F)cc2)CC1`, the Potency is reported as active: 22.4 µM. With `Oc1ccc(-c2nccc(-c3ccccn3)n2)cc1` the Potency was inconclusive [activator, partial curve]. With `COCCn1cc(C(=O)N2CCCC(C)C2)c2c3ccccc3n(C)c2c1=O` (configuration not stated) the Potency was “inactive”. With `CN(C)c1cccc(NC(=O)c2ccc(-c3ccc(F)c(F)c3)c3ccoc23)c1` the Potency was inconclusive [activator, full curve]. With `CCCN(CCC)Cc1cc(=O)oc2cc(OC)c(Cl)cc12` the Potency was inconclusive [activator, full curve, poor fit]. In the case of `COc1cc(NC(=O)c2cccs2)c(OC)cc1NC(=O)CCC(=O)Nc1ccc2ncccc2c1`, the Potency is reported as inconclusive [activator, full curve, poor fit]. In the case of `CCc1ccc(NC(=O)c2ccc(F)c(S(=O)(=O)N(C)C3CCCCC3)c2)cc1`, the Potency is reported as inconclusive [activator, partial curve, poor fit]. For `CCc1ccc(NC(=O)CSc2nccn2-c2cccc(C)c2C)cc1`, the Potency was active: 31.6 µM. In the case of `Cn1c(C=O)c(-c2ccc3cc[nH]c3c2)c2ccccc21`, the Potency is reported as “inactive”. For `CCOC(=O)N1CCc2c(sc3c2c(=O)n(Cc2ccccc2)c(=O)n3Cc2ccccc2F)C1`, the Potency was inconclusive [activator, partial curve]. For `Cn1c(COc2ccc3ccccc3c2)nnc1SCC(=O)OC1CCCCC1`, the Potency was inconclusive [activator, single point]. For `CC(C)(C)OC(=O)NCCCCCc1nnc(SCc2ccccc2)o1`, the Potency was active: 35.5 µM. In the case of `COc1ccc(NC(=O)CCn2nc(-c3ccccc3OC)c3c(C)cc(C)nc32)cc1`, the Potency is reported as active: 14.1 µM. With `O=C1CC(N2CCN(c3cccc(C(F)(F)F)c3)CC2)C(=O)N1c1ccccc1` (configuration not stated) the Potency was inconclusive [activator, partial curve]. With `COc1ccc(NC(=O)/C=C/C(=O)O)c([N+](=O)[O-])c1` the Potency was inconclusive [activator, partial curve]. In the case of `O=C(c1cccs1)N(CC1CCCO1)c1nc(-c2ccccc2)cs1` (configuration not stated), the Potency is reported as inconclusive [activator, full curve, poor fit]. For `COc1ccc(C2C(=O)N(C3CCCCC3)CC(=O)N2CCc2ccc(OC)c(OC)c2)cc1` (configuration not stated), the Potency was inconclusive [activator, single point]. For `COc1cccc(C2C=C(c3ccc(OC)cc3OC)Nc3nnnn32)c1` (configuration not stated), the Potency was inconclusive [activator, partial curve]. With `CC1CN(c2ncnc3c2c(-c2ccccc2)cn3-c2ccc(F)cc2)CC(C)O1` (configuration not stated) the Potency was inconclusive [activator, single point]. For `Cc1cc(N2CCOCC2)nc(-c2ccc(Br)cc2)n1`, the Potency was inconclusive [activator, full curve]. For `O=C(CSc1n[nH]c(-c2ccccc2)n1)c1ccc(O)c(O)c1`, the Potency was inconclusive [activator, single point]. With `CC1CCCC(NS(=O)(=O)c2ccc3c(c2)OCCO3)C1C` (configuration not stated) the Potency was inconclusive [activator, single point]. With `Cc1ccc(Nc2ncnc3sc(C)c(C)c23)cc1` the Potency was inconclusive [activator, partial curve]. With `COc1ccc(CC(=O)N/N=C/c2cc([N+](=O)[O-])cc(Br)c2O)cc1` the Potency was active: 6.31 µM. For `C[C@@H](NC(=O)[C@@H]1CCCN1C(=O)[C@@H]1CCCN1C(=O)OC(C)(C)C)c1ccccc1`, the Potency was “inactive”. In the case of `O=C(c1c[nH]c(C(=O)C(Cl)(Cl)Cl)c1)c1ccccc1F`, the Potency is reported as active: 10 µM. In the case of `O=C(Oc1ccc(N(C(=O)c2ccncc2)S(=O)(=O)c2cccs2)cc1)c1ccncc1`, the Potency is reported as inconclusive [activator, single point]. For `CCc1ccc(C(C(=O)NCc2ccc(OC)cc2)N(CCOC)C(=O)Cc2cccs2)cc1` (configuration not stated), the Potency was “inactive”. For `COc1cccc(C(=O)N2CCC(c3nc4ccccc4s3)CC2)c1`, the Potency was “inactive”. In the case of `CCCCOc1ccc(C(=O)Nc2ccc(OCC(=O)N3CCOCC3)cc2)cc1`, the Potency is reported as “inactive”. For `Cc1oc(C(=O)O)cc1COc1cccc2ccccc12`, the Potency was active: 31.6 µM. With `O=c1c2ccc([N+](=O)[O-])cc2ncn1CCOc1ccc(Cl)cc1` the Potency was active: 25.1 µM. For `O=C(CC1N=C2c3ccccc3N=C(SCc3cccc(Cl)c3)N2C1=O)NC1CCCCC1` (configuration not stated), the Potency was inconclusive [activator, single point]. With `COc1ccc2c(CC(=O)N(C)CC3COc4ccccc4O3)coc2c1` (configuration not stated) the Potency was inconclusive [activator, single point]. In the case of `C[C@H]1CCC(=O)N([C@H](CSc2ccccc2)Cc2ccccc2)CC1`, the Potency is reported as inconclusive [activator, partial curve].
